120 sequences from the supplement of paper PMC10126150 can be followed below.

This data set relates to ATP. The data set is described as follows: switch fluorescence ratio, 500 uM ATP over buffer (Cy3 cluster intensity, sum of 5 cycles each) (fold (ratio)); higher = stronger signal-on switching upon ATP binding; sequences stand for … in TCGTCGGCAGCGTCAGATGTGTATAAGAGACAGTTTTTTTTTTTTTTTTTTTTTTTTT…TC. The settings on record: aptamer strand: ATP DNA aptamer (quencher-CACCTGGGGGAGTATTGCGGAGGAAGG + anchor), 100 nM annealed; ATP concentration: 500 uM; one replicate. In short, it runs like this:
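Values give the fluorescence ratio for each switch-domain sequence, averaged from per-cluster ratios of summed target-cycle to summed buffer-cycle Cy3 intensity. The Cy3-labelled switching-strand clusters sat on a modified Illumina MiSeq flow-cell, were annealed to 100 nM quencher-labelled ATP aptamer, and were imaged in selection buffer, then after 15 min with 500 uM ATP at 22 °C. Five cycles ran with NaOH stripping and re-annealing between them, and clusters outside 100-1000 RFU were excluded.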

Values marked as one replicate rest on one cluster of the flow cell; about a third of the high ones do not repeat.
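Also: ATP exposure 15 min at 22 °C before imaging.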

With TATTGTAAAT, the switch fluorescence ratio is 0.946.

Take TTGGTGCT: the switch fluorescence ratio was determined as 1.03. For CCGTTAAAAC, the switch fluorescence ratio was found to be 1.35. To GGTGGAAAAA belongs 1.01. The same measure for TGAAGTGCTG: 1.01; for TCTGTGTGTC: 1.02; for GTGGACGGGC: 1.04. As to TCGCAGTTAG, the switch fluorescence ratio amounted to 1.49. To AAACAGTAAT belongs 1.05. For GTTATGAATT, the switch fluorescence ratio was determined as 0.976.

Regarding CGGGGTAAGC, the switch fluorescence ratio is 1.04. Turning to TCAGTGAGCA, the switch fluorescence ratio worked out at 1.01. To AACATGCGAA belongs 0.937; to GCCTTACGAT, 1.39; to CGTTCAGCG, 1.06.

For CAAGGTTCGA, the switch fluorescence ratio stood at 1.02. The same measure for GTCGTCGG: 1.12. On to TCCATCCTTG, for which the switch fluorescence ratio stood at 1.

With TTGTCTCATC, the switch fluorescence ratio was determined as 0.972. AGAGGCTTGC: the switch fluorescence ratio was determined as 1.17. Regarding TTAATTTGCC, the switch fluorescence ratio was 0.916. On to ATCCGCCGAT, for which the switch fluorescence ratio stood at 1.42. Regarding GGTATCTGTG, the switch fluorescence ratio was 0.982. The same measure for AATATATAAT: 0.996; for CTGGGCTTTT: 1.03.

For GCGTATGTAA, the switch fluorescence ratio worked out at 1. To AACTATCAGG belongs 1.14; to TAACTCTCTT, 1.51; to TATTTCCAAA, 0.996. Take TGACATTCCG: the switch fluorescence ratio was 1.03.

For the sequence GAGGTGCAGT, the switch fluorescence ratio amounted to 1.02. The same measure for CGTTTGAATC: 1.02; for GAAGGAATGG: 1.11.

In the case of AACGAACTCT, the switch fluorescence ratio is 1.3. The same measure for GCAACTGGTG: 1.27; for ACAGGAGCGA: 0.985; for ATAGCCTCGA: 0.962. The same measure for TCTCAGATCA: 1.02. To AGTTAGACAT belongs 0.957; to GTTCTCAGGA, 0.996. For CGGAACGGAC, the switch fluorescence ratio is 1.1. To TACGATCACG belongs 1.13.

TGCTCTACTG: the switch fluorescence ratio is 1.

For the sequence AAAGCGAAGA, the switch fluorescence ratio came out at 0.983. The same measure for AGATGAGAGG: 0.954; for CCAATCGGCT: 1.02. The same measure for GCGATAACCT: 2.13; for TATCTGAAA: 0.987.

As for CAAGTTCGCA, the switch fluorescence ratio was 1.09. For CCGTCCCCG, the switch fluorescence ratio is 1.37. The same measure for TAGGATTGAT: 1.01; for GCAGTGTTTG: 1; for CGCGTTGCTC: 1.32. To GGTTTGGCAT belongs 0.955; to TTGCCAAATA, 0.966. To ATATTCACGT belongs 1.04; to CATATGTCAA, 1.04; to CTGTCATGA, 1. On to CGGAGCTGAG, for which the switch fluorescence ratio is 2.15. Regarding TATGGGAAAT, the switch fluorescence ratio is 0.968.

AAGAGCGCTT: the switch fluorescence ratio is 0.967.

As to TCTACTGTAA, the switch fluorescence ratio is 1.21. The same measure for AATTTTAGTT: 0.958; for CGTATAGAGC: 0.967; for GGCTGGACTA: 1. To TACTACCATC belongs 1.15. Take CTAGACGCTC: the switch fluorescence ratio was found to be 1.17.

In the case of TGGTTGGTCG, the switch fluorescence ratio amounted to 1.01.

In the case of TTTCCAGGTA, the switch fluorescence ratio came to 1.09. TCAGTATTTG: the switch fluorescence ratio turned out to be 0.983. Consider TGTGATGTAT, for which the switch fluorescence ratio was 1.

On to TTATTATCTT, for which the switch fluorescence ratio was found to be 1.02. The same measure for CCGTTAACAC: 3.48; for ACCAACGAAC: 1.34.

For GAGTACACTA, the switch fluorescence ratio was found to be 1.11. Turning to AGGCTGTAGC, the switch fluorescence ratio amounted to 0.996. Consider TACACGTGGT, for which the switch fluorescence ratio amounted to 1.01. The same measure for GGCTATGGTA: 1.02. The same measure for GTGCCGTTTT: 0.986; for AGCCGCCTG: 1; for GCAATTGGAG: 1. In the case of CAACTTTTAT, the switch fluorescence ratio came out at 1.03.

As for TAAGCCGGAG, the switch fluorescence ratio stood at 1. On to TACGAGATTG, for which the switch fluorescence ratio is 1.06. ATGCCTCATC: the switch fluorescence ratio stood at 0.97. The same measure for TTATATAGG: 1.01. For TACGAACGA, the switch fluorescence ratio came out at 1.48. The same measure for CAGAATTCGG: 0.949.

Take CGGCGGCTCG: the switch fluorescence ratio came to 0.973.

Consider AATACTATTG, for which the switch fluorescence ratio came to 0.96. With AGCTACTGCA, the switch fluorescence ratio was 1.03. The same measure for ACTGATCTGT: 1.05. On to GGTAGTACGT, for which the switch fluorescence ratio came out at 0.983. The same measure for GAGTATTCCG: 1.01; for GGGCCAGAAC: 0.962. On to TGGCAACCTG, for which the switch fluorescence ratio is 0.963. The same measure for CGAGGGCGGC: 1.01; for TGATAATAG: 1.01; for GCGCATTTGC: 1.26. To CATCCGGTTG belongs 1.24; to GCAGGATGGA, 1.04; to CAGTGTCCAG, 1.04.

Consider CAAGTGGCGC, for which the switch fluorescence ratio turned out to be 0.95. To CGTATAGTTG belongs 1.03; to CTTCTTTTTT, 0.955; to CAGGCGGTA, 1.02.

In the case of CTGGGATGGC, the switch fluorescence ratio came out at 0.991.

Turning to GCCAAACAT, the switch fluorescence ratio stood at 1.02. TAGTTCGACC: the switch fluorescence ratio worked out at 1.03. The same measure for TAATATGCTT: 0.969; for CTTTTAACTT: 1.06. On to TGGAAGAAAG, for which the switch fluorescence ratio came out at 1.01. The same measure for GCTAGGGC: 0.997; for AGCCACTAGT: 1.01; for GTCTAGGCGA: 1.05. To TGGGGACTCG belongs 0.961; to AATGTTACCT, 1.27. To TCCTAAGTAG belongs 1.06.

AGGTAGAAAT: the switch fluorescence ratio was 1.05. To CCTAAGTTGC belongs 1.16.
